What was measured:
[1] = test system: LC3; assay: Autophagy marker immunoblot, HEK293-TREx cells; type: cell-based, human; conditions: overnight, serum-free DMEM, 10 μM EVJ, 5 μM JWJ, 10 μM MK2206
Protocol: To determine if the effects on autophagy following PLD inhibition were cell-type specific, LC3/p62 levels between U87MG cells and HEK293 cells were examined. […] However, the levels of LC3 and p62 under basal conditions were much higher in the U87MG cells.

[2] = test system: LC3; assay: Tandem-fluorescent LC3 (GFP/RFP) imaging, U87MG stable cells; type: cell-based, human; conditions: tf-LC3 U87MG, overnight, serum-free DMEM; 10 μM EVJ, 5 μM JWJ, 10 μM MK2206
Protocol: Glass coverslips were flame sterilized and placed into 6-well plates. U87MG-tfLC3 cells were seeded at 150,000 cells/well in complete media and allowed to adhere overnight. The following day, cells were washed and treated with inhibitors in serum-free DMEM for 24 h. Cells were washed in 1×PBS then fixed for 15 minutes in 2% paraformaldehyde followed by washing in PBS. Coverslips were removed and mounted onto glass slides in Vectashield mounting media containing DAPI (Vector Labs). GPF/RFP images were acquired using Nikon AIR laser scanning confocal microscope equipped with a Plan Apo VC 60× 1.4 N.A. and 40× oil immersion lens.
This reporter system consists of a red fluorescent protein (RFP) and a green fluorescent protein (GFP) fused to LC3. As autophagosome numbers increase, either due to increased autophagy initiation or decreased degradation, fluorescence intensity increases as LC3 clusters on autophagosome membranes. Unlike RFP, GFP is quenched by low pH and LC3 present in lysosomes should predominantly emit an RFP signal. […] The tF-LC3 U87MG cells were treated with PLD or Akt inhibitors overnight, fixed, and imaged for GFP and RFP signals. Under vehicle treated conditions, numbers of LC3 puncta were low and predominantly visualized with the pH-insensitive RFP tag, indicative of functional autophagy.

[3] = test system: LC3 and p62; assay: Autophagy marker immunoblot (LC3-II, p62), U87MG cells; type: cell-based, human; conditions: overnight, serum-free DMEM, 10 μM EVJ, 5 μM JWJ, 10 μM MK2206
Protocol: Lysates were prepared by incubating cell pellets in lysis buffer (see immunoprecipitation procedure) for 30 minutes at 4° C. Protein concentrations were measuring using the Bio-Rad protein assay reagent. The antibodies used in the various studies as described herein, along with their vendors and catalog numbers are provided in Table 3.
In addition to apoptosis, cells undergo another type of programmed cell death requiring autophagy (Tsujimoto and Shimizu, (2005) Cell Death Differ. 12 Suppl 2, 1528-1534), a process known to be stimulated by nutrient or growth factor deprivation (Kroemer, G. et al., (2010) Mol. Cell 40, 280-293). Autophagy is a multistep process involving formation of double-membrane autophagosomes that engulf cytosolic components and deliver cargo to lysosomes for digestion and nutrient recycling (Ravikumar, B. et al., (2009) J. Cell Sci. 122, 1707-1711). In order to determine if autophagy was perturbed following PLD or Akt inhibitor (MK2206) (Hirai, H. et al., (2010) Mol. Cancer Ther. 9, 1956-1967) treatment, the expression levels of the well-characterized autophagy makers microtubule-associated protein 1A/1B-light chain 3 (LC3) and p62 were measured. Autophagasome number is frequently assessed by measuring conversion of cytosolic LC3-I to a membrane-associated, lipidated LC3-II which is readily measureable as a faster migrating species of LC3 during SDS-PAGE (Kabeya, Y. et al., (2000) EMBO J. 19, 5720-5728). The other marker, p62, is an LC3 and ubiquitin-binding protein, involved in the regulation of protein aggregates and is degraded by autophagy (Komatsu, M. et al., (2005) J. Cell Biol. 169, 425-434). Induction of autophagy and successful degradation of autophagosomes would thus be accompanied by a decrease in p62 levels. […] Fold change in immunoreactivity relative to vehicle control. ANOVA with Dunnett's post-hoc test was used to compare inhibitor treatment to vehicle control (**p<0.01).
To conclusively determine that flux, rather than autophagosome initiation, is regulated by PLC, LC3-II conversion in the presence of the lysosomal proton pump inhibitor bafilomycin A1, which prevents autophagosome fusion to lysosomes and inhibits degradation of autophagosomes, was measured. Thus, bafilomycin A1 is commonly used to discriminate the effects of a compound on autophagy initiation versus flux by assessing LC3-II levels in the presence of a test compound after clamping degradation of autophagosomes (Yamamoto, A. et al., (1998) Cell Struct. Funct. 23, 33-42).

[4] = test system: Beclin1/Rubicon complex; assay: Rubicon co-immunoprecipitation with HA-Beclin1, U87MG cells; conditions: 6 h, serum-free DMEM; for binding of Rubicon to S295A mutant of Beclin1: S295A HA-Beclin1, 10 μM; for Rubicon co-immunoprecipitated with Beclin1: wild type HA-Beclin1, 10 μM
Protocol: Cells were scraped in ice-cold PBS then centrifuged at 1,000 g for 5 minutes to pellet cells. Cells were lysed by suspension in lysis buffer (50 mM Tris pH 8.0, 15 0 mM NaCl, 0.5% NP-40, 40 mM beta-glycerophosphate, 20 mM sodium pyrophosphate, 1 mM Na3VO4, 2 mM EDTA, 2 mM EGTA, 5 mM NaF, 1 mM DTT, and Roche complete protease inhibitor cocktail) and then subjected to 3 freeze/thaw cycles in dry ice/ethanol. Between each thaw cycle, lysates were drawn up and down through 25G syringe needles. Lysates were clarified by centrifugation at 10,000×g for 10 minutes at 4° C. In order to remove non-specific proteins, lysates were incubated with protein-G agarose (Millipore) for 2 h at 4° C. Beads were removed by centrifugation at 1,000×g for 1 min. Supernatants were transferred to new tubes and immunoprecipitating antibodies were allowed to incubate with pre-cleared lysates overnight at 4° C. Antibodies were captured using protein-G agarose for 2 h. Beads were washed 3× in lysis buffer containing 300 mM NaCl and complexes eluted by boiling in 2×SDS-PAGE loading buffer. For immunoprecipitation of endogenous proteins, normal IgG (Santa Cruz) was used as a nonspecific control.
(§1) After establishing that PLD and Akt promote autophagic flux, the molecular mechanism was investigated. The mammalian target of rapamycin (mTOR) pathway suppresses autophagy under nutrient rich conditions and PLD has been implicated as an upstream positive regulator of mTOR (reviewed in Foster, D. A. (2009) Biochim. Biophys. Actas 1791, 949-955). […] Referring to FIG. 22A, U87MG cells were treated overnight with 10 μM EVJ, 5 μM JWJ, 10 μM MK2206, or 1 μM mTOR inhibitor Torinl. Cells were immunoblotted for total and phosphorylated p70S6K1. […] Beclin1 is a component of the core autophagy complex (Liang, X. H. et al., (1999) Nature 402, 672-676) and exists in multiple protein complexes during progressive stages of autophagy (Kihara, A. (2001) EMBO Reports 2, 330-335). […] Band intensities of Rubicon and Beclin1 were determined and the ratio of Rubicon to Beclin1 was calculated for each sample. Fold changes in this ratio were calculated by comparing inhibitor conditions to the vehicle treated conditions within the wild-type or S295A Beclin1 groups (n=4, **p<0.01, ANOVA with Dunnett's post-hoc test, error bars=SEM). To address whether the interaction of Rubicon with Beclin1 was mediated by Akt phosphorylation, the two putative Akt phosphorylation residues on Beclin1, serine 234 and serine 295 (Wang, R. C. et al., (2012) Science 338, 956-959), were mutated and Rubicon binding assessed. […]

[5] = test system: mTOR; assay: mTOR activity (p70S6-kinase phosphorylation), U87MG cells; conditions: overnight, 10 μM EVJ, 5 μM JWJ, 10 μM MK2206
Protocol: as §1

SMILES: C[C@@H](CN1CCC(n2c(=O)[nH]c3cc(Br)ccc32)CC1)NC(=O)[C@@H]1C[C@@H]1c1ccccc1 [No. 2, (1R,2S)—N-((S)-1-(4-(5-bromo-2-oxo-2,3-dihydro-1H-benzo[d]imidazol-1-yl)piperidin-1-yl)propan-2-yl)-2-phenylcyclopropane carboxamide]
- LC3-II conversion [1]: increased LC3-II conversion in both cell types
- LC3 localization (GFP/RFP puncta) [2]: induced a robust relocalization of cytosolic LC3-I to large fluorescent puncta
- LC3-II conversion [3]: robustly induced LC3-II conversion
- p62 levels [3]: increased p62 levels

SMILES: NC1(c2ccc(-c3nc4ccn5c(=O)[nH]nc5c4cc3-c3ccccc3)cc2)CCC1 [MK2206, reference compound]
- binding of Rubicon to S295A mutant of Beclin1 [4]: failed to increase binding of Rubicon to the S295A mutant of Beclin1
- Rubicon co-immunoprecipitated with Beclin1 [4]: increased the amount of Rubicon that co-immunoprecipitated with Beclin1
- LC3-II conversion [1]: increased LC3-II conversion in both cell types
- LC3 localization (GFP/RFP puncta) [2]: induced a robust relocalization of cytosolic LC3-I to large fluorescent puncta
- mTOR activity / p70S6-kinase phosphorylation [5]: diminution of mTOR activity
- LC3-II conversion [3]: robustly induced LC3-II conversion
- p62 levels [3]: increased p62 levels

SMILES: O=C(NCCN1CCC2(CC1)C(=O)NCN2c1cccc(F)c1)c1ccc2ccccc2c1 [No. 1, N-(2-(1-(3-fluorophenyl)-4-oxo-1,3,8-triazaspiro[4.5]decan-8-yl)ethyl)-2-naphthamide]
- binding of Rubicon to S295A mutant of Beclin1 [4]: failed to increase binding of Rubicon to the S295A mutant of Beclin1
- Rubicon co-immunoprecipitated with Beclin1 [4]: increased the amount of Rubicon that co-immunoprecipitated with Beclin1
- LC3-II conversion [1]: increased LC3-II conversion in both cell types
- LC3 localization (GFP/RFP puncta) [2]: induced a robust relocalization of cytosolic LC3-I to large fluorescent puncta
- LC3-II conversion [3]: robustly induced LC3-II conversion
- p62 levels [3]: increased p62 levels

Reference: patent US20170319611A1, “METHODS AND COMPOSITIONS COMPRISING AKT INHIBITORS AND/OR PHOSPHOLIPASE D INHIBITORS” (Vanderbilt University, priority 2012, published 2017)
